PubChem BioAssay AID1347073 (National Center for Advancing Translational Sciences (NCATS), 2019)
Out of some 45,000 compounds screened, about 200 (0.44%) were called active. Not shown: some 7% with an inconclusive outcome. Calls come from the whole dose curve; as a rule, active = well fitted activation curve with a large enough effect; inconclusive = small, poorly fitted or top-dose-only effect; inactive = no such curve, though single readings can be large or run the other way. The list shows a part of the results.

Assay: qHTS of TDP-43 Inhibitors: NCGC Sytravon Library Screen; note: 0% is about no effect; nearly all actives have a fitted effect of over 55% in size
Settings: yeast TDP-43 toxicity rescue, BacTiter-Glo growth, 24 h; series mostly up to 46.1 µM; growth rescue (activation): at the top concentration
Outline: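 TDP-43-expressing yeast, pregrown in raffinose, seeded at OD600 0.02 in galactose medium with compound for 24 hr at 30 deg C. Growth read by BacTiter-Glo luminescence, so rescue of toxicity appears as activation.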

SMILES	growth rescue (activation)
CCOC(=O)C(C)Sc1nc2c(c(-c3cccs3)c1C#N)CCC2 (centres undefined)	inactive: -4.8%
O=C(Nc1nnc([C@@H]2C[C@H](O)[C@@H](CO)O2)s1)NC(c1ccccc1)c1ccccc1	inactive: 1.81%
CCCOc1ccc(-c2nc(SCc3ccccc3)[nH]c(=O)c2C#N)cc1OC	inactive: 8.04%
FC(F)(F)c1ccc(NCCc2ccccc2)nc1	inactive: 10.3%
Cc1cc(=O)[nH]c(N/N=C/CCc2ccccc2)n1	inactive: 9.49%
O=C(O)CN(Cc1ccco1)S(=O)(=O)c1ccc(F)cc1	inactive: 4.56%
N/C(=N\OC(=O)COc1cc(Cl)c(Cl)cc1Cl)c1ccccn1	inactive: 12.4%
O=c1[nH]c2ccccc2c2nc(-c3cccc(S(=O)(=O)N4CCCC4)c3)nn12	inactive: 1.11%
COc1ccc(CCNC(=O)COC(=O)c2cccs2)cc1OC	inactive: 4.9%
CCN(CC)S(=O)(=O)c1ccc(C(=O)NCC2CCCCC2)cc1	inactive: 1.83%
CCc1ccc(N(C(=O)CNC(=O)c2ccco2)C(C(=O)NCC2CCCO2)c2ccccc2)cc1 (centres undefined)	inactive: 0.518%
Cc1c(C)c2ccc(O[C@@H]3O[C@H](CO)[C@H](O)[C@H](O)[C@H]3O)c(C)c2oc1=O	inactive: -1.75%
O=C(O)CCCn1cc(NC(=O)COc2ccc(F)cc2)cn1	inactive: -0.508%
CCN(CCO)C(=O)c1ccc2nc(Cc3ccc(OC)cc3)oc2c1	inactive: 7.88%
O=C(CSc1nnnn1C1CC1)Nc1cc(S(=O)(=O)N2CCCC2)ccc1Cl	inactive: -2.38%
CSc1nc(C)cc(OCC(=O)N/N=C/c2ccccc2O)n1	inactive: -12.8%
Cc1cc(C)nc(NC(=O)Cc2ccc([N+](=O)[O-])cc2)c1	inactive: 14.8%
Cc1c(NC(=O)NC(=O)c2ccc(F)cc2)c(=O)n(-c2ccccc2)n1C	inactive: -7.88%
O=C(CNC(=O)c1ccncc1)N/N=C/c1cccc([N+](=O)[O-])c1	inactive: 0.347%
O=C(CCCc1nc2ccccc2s1)NC1CCOC1=O (centres undefined)	inactive: -5.94%
COc1ccccc1NC(=O)Cc1noc(CSc2nnc(C(F)(F)F)n2C)n1	inactive: 1.99%
CCOC(=O)C1=C(O)C(=O)N(c2ccc(S(N)(=O)=O)cc2)C1c1cccc([N+](=O)[O-])c1 (centres undefined)	inactive: -5.7%
CCCCC(=O)N(C)c1c(CC)nc2c(OCc3ccc(C(F)(F)F)cc3)cccn12	inactive: 3.46%

SMILES	growth rescue (activation)
O=C(CSc1nnc(NC(=O)C2CCC2)s1)Nc1ccccc1	inactive: 10.4%
O=C(NN=C1CCCC1)c1sc2ccccc2c1Cl	inactive: 22.2%
COc1ccc(NC(=O)c2c(Cl)nc3ccccn23)cc1	inactive: 19.1%
CCc1ccc2c(c1)c(N=NC1=NC(=O)CS1)c(O)n2C	inactive: -2.3%
CCS(=O)(=O)c1c(S(=O)(=O)CC)c2ccccn2c1C(N)=O	inactive: -2.32%
Cc1ccnn1-c1ccc(C(=O)NCc2ccccc2CN2CCOCC2)cc1	inactive: -3.81%
N#Cc1nc(Cc2cccc3ccccc23)oc1N1CCC(C(N)=O)CC1	inactive: 13.5%
NC(=O)CN1C(=O)/C(=c2\sc3nc(=O)c(Cc4ccccc4)nn3c2=O)c2ccccc21	inactive: 8.7%
CCOc1ccccc1OCCCC(=O)NNC(=O)c1ccc(F)cc1	inactive: -2.76%
O=C(NC(=S)NCc1ccc(Cl)cc1Cl)c1ccco1	inactive: 15.9%
COc1cc(C)c(CN2CCN(C(C)C(=O)NC(C)c3ccccc3)CC2)cc1OC (centres undefined)	inactive: 3%
COc1cc(CCC(=O)Nc2nnc(C)s2)cc(OC)c1OC	inactive: 3.64%
Cc1cc(CNC(=O)CCc2nnc(CCCc3ccccc3)o2)nn1C	inactive: 12.7%
CCCN(CCC)CCNC(=O)c1cc2c(=O)n(CC)c3ccccc3c2s1	inactive: -11.6%
CS(=O)(=O)c1ccccc1C(=O)NCCC(c1ccccc1)c1ccccc1	inactive: -12.5%
Cc1cccc(NC(=S)N(Cc2ccc(Br)cc2)Cc2ccc(C(=O)O)cc2)c1	inactive: -5.24%
Cc1nc(-c2ccncc2)sc1C(=O)Nc1ccc(Br)cc1	inactive: 13.2%
N#CC(C#N)=Cc1ccc(-c2ccc(S(=O)(=O)N=C(N)N)cc2)o1	inactive: 3.66%
C/C(N)=C(/C#N)C(=O)COC(=O)c1ccccc1Cc1ccccc1	inactive: 18.8%
O=C(Nc1cccc(Cl)c1)Nc1nnc(-c2ccncc2)s1	inactive: 15.7%
Cc1ccc(N=Nc2c(N)n[nH]c2N)cc1	inactive: -1.82%
COc1ccc(NC(=O)CN2C(=O)NC3(CCCC3)C2=O)cc1	inactive: 1.37%
CN(C(=O)CSc1cccc[n+]1[O-])C1CCCCC1	inactive: 36.5%

SMILES	growth rescue (activation)
O=C(NCc1c(F)cccc1F)c1cc(COc2c(F)cccc2F)on1	inactive: -2.23%
COc1ccc(S(=O)(=O)N2CCC(C(=O)N3CCOCC3)CC2)cc1Cl	inactive: 6.22%
O=C1NC(=O)C2C1C(c1cccs1)NN2Cc1ccccc1 (centres undefined)	inactive: 1.52%
CCOC(=O)C(=O)NN=C(c1ccccc1)c1ccccc1	inactive: 9.89%
CSCC[C@H](NC(=O)c1cccc(S(=O)(=O)N2CCCCC2)c1)c1nc2ccccc2[nH]1	inactive: 9.24%
CCCC(CCC(=O)Nc1cc([N+](=O)[O-])ccc1O)C(=O)O (centres undefined)	inactive: -12.9%
COCCn1c(N)c(NCc2ccccc2)c(=O)[nH]c1=O	inactive: 5.19%
Cc1cc(CCC(=O)O)c(C)cc1CCC(=O)O	inactive: 16.6%
O=C(c1cc(Sc2cccc(Cl)c2)nc2ccccc12)N1CCN(c2ccccn2)CC1	inactive: -20.1%
CC(C(=O)c1ccc(-c2ccccc2)cc1)[n+]1cccc(NC(=O)c2ccccc2)c1 (centres undefined)	inactive: 15%
NC(=O)c1cccc(-c2ccnc3c2CC(C(=O)Nc2ccccc2)O3)c1 (centres undefined)	inactive: -8.13%
CC1(C(=O)NS(=O)(=O)Cc2cccc(Cl)c2)CCN1C(=O)CC1CCCC1 (centres undefined)	inactive: -9.65%
CCOc1cc(C2C(C(=O)c3ccco3)=C(O)C(=O)N2CC2CCCO2)ccc1O (centres undefined)	inactive: -8.77%
CCOc1ccc(C2C(C(=O)c3ccco3)=C(O)C(=O)N2Cc2cccnc2)cc1OC (centres undefined)	inactive: 4.33%
S=C(NC1CC1)NC1CCCc2ccccc21 (centres undefined)	inactive: -5.85%
CCOC(=O)CNC(=S)N(CCCN1CCCC1)Cc1cccs1	inactive: 7.55%
COc1ccc(N2CCN(C(=O)CCCCn3c(=O)[nH]c4ccsc4c3=O)CC2)cc1	inactive: 9.1%
CSCCC(NC(=O)c1ccc(Cl)cc1)C(=O)OCC(=O)Nc1ccc(C#N)cc1 (centres undefined)	inactive: -38.3%
Cc1ccc(NS(=O)(=O)c2ccc(C(=O)OCC(=O)NCC3CCCO3)cc2)cc1 (centres undefined)	inactive: 8.75%
O=C1c2ccccc2NC(c2ccccc2)N1NS(=O)(=O)c1ccccc1 (centres undefined)	inactive: 13.9%
Cc1ccc(Cl)cc1N1CCN(C(=O)c2ccc3nc[nH]c3c2)CC1	inactive: 26.7%
CC1(C)C(CSc2nc3ccccc3[nH]2)C1(Cl)Cl (centres undefined)	inactive: -10.6%
C=CCn1c2ccccc2c2nnc(SCCCn3c(=O)[nH]c4ccccc43)nc21	inactive: 22.6%
